# Screen size: about 44,000 compounds; about 340 (0.77%) were called active. About 5% were inconclusive and are not listed. Calls come from the whole dose curve; as a rule, active = well fitted inhibition curve with a large enough effect; inconclusive = small, poorly fitted or top-dose-only effect; inactive = flat fitted curve, though single readings scatter. The list shows a part of the results.
# Assay: Acumen qHTS Assay for Inhibitors of the mTORC1 Signaling Pathway in MEF (Tsc2-/-, p53-/-) Cells: Sytravon; note: nearly all actives have a fitted effect of over 50% in size;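 for activity change, negative = inhibition: plate controls were DMSO for no effect and rapamycin for full effect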
# Settings: phospho-rpS6 immunofluorescence/PI, 24 h; series mostly up to 38.3 µM; activity change, negative = inhibition: at the top concentration
# Procedure, shortened: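 Plate MEFs (Tsc2-/-, p53-/-, empty vector) in DMEM/10% FBS; after 24 h add compound, incubate 24 h at 37 degree Celsius; fix in PFA/TX-100, block, stain phospho-rpS6 and 10 uM PI; scan at 488 nm; report % positive cells.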
# Potency is the fitted concentration of half-maximal effect.
SMILES,"activity change, negative = inhibition",Potency
COc1cc(NC(=O)CC2C(=O)N(c3ccc(Cl)cc3)C(=O)N2Cc2cccs2)cc(OC)c1 (configuration not stated),inactive: -4.53%,–
CN1C(C(=O)Nc2ccc(F)cc2F)=CC(c2ccco2)=NS1(=O)=O,inactive: 1.64%,–
O=C(CSCc1ccccc1Cl)N1CCN(c2ccc(F)cc2)CC1,inactive: 2.02%,–
Cc1nnc(NCc2ccccc2)c2c1nnn2Cc1ccccc1Cl,inactive: 2.64%,–
Cc1cccn2c(=O)c(C(=O)NCCCN3CCCCC3C)c(O)nc12 (configuration not stated),inactive: -0.0398%,–
Cc1cc2oc(C(=O)Nc3c(C(=O)Nc4ccccc4)oc4ccccc34)cc(=O)c2cc1C,inactive: -13.4%,–
Cc1cccc(C)c1NC(=O)c1oc2ccc3c(c2c1C)C(=O)CC(C)(C)O3,inactive: -11.9%,–
COc1ccccc1CNC(=O)C1CCCN(S(=O)(=O)c2ccc3c(c2)CCCN3C(C)=O)C1 (configuration not stated),inactive: -18.1%,–
O=C(Cn1ncc2c1-c1ccccc1OC2)N1CCN(c2ccccc2F)CC1,inactive: 2.85%,–
COc1ccc(N2CCN(C(=O)c3cn(CC(C)C)c(=O)c4c3c3ccccc3n4C)CC2)cc1,inactive: -0.583%,–
CCc1ccc(-c2nn(CC(=O)Nc3ccccc3)c3c2cnc2ccc(F)cc23)cc1,inactive: -5.83%,–
CC(C)(C)C1CCc2c(sc(NC(=O)Cn3nnc(-c4ccccc4F)n3)c2C#N)C1 (configuration not stated),inactive: 0.644%,–
O=C(Cn1c(=O)c2cccn2c2ccccc21)Nc1cc(F)ccc1F,inactive: -0.946%,–
CCOC(=O)c1cc(-c2ccccc2)n(-c2cccc(C(=O)Nc3ccc(OC)cc3)c2)c1C,inactive: -0.786%,–
COc1ccc(-c2[nH]ncc2C(=O)NCc2ccccc2C)cc1,inactive: 0.117%,–
Cc1onc(-c2ccccc2Cl)c1C(=O)Oc1cc(F)cc(F)c1,inactive: 4.38%,–
COC(=O)c1ccccc1NC(=O)Cn1c(=O)n(-c2cccc(OC)c2)c(=O)c2c(C)c(C(=O)N(C)C)sc21,inactive: 1.64%,–
CCC(C(=O)NCCc1ccc(SC)cc1)n1nc(C)c2sc3ccccc3c2c1=O (configuration not stated),inactive: 2.23%,–
CC(=O)N1CCCc2cc(S(=O)(=O)N3CCC(C(=O)NCc4ccc(C)cc4)CC3)ccc21,inactive: -0.808%,–
CCN(CC)CCNC(=O)c1cn(CC)c2ccc(S(=O)(=O)N3CCOCC3)cc2c1=O,inactive: -0.101%,–
Cc1ccc(CCNC(=O)Cn2nc(-c3ccc(C)cc3)ccc2=O)cc1,inactive: -21.1%,–
COc1ccc(OCC(=O)OCc2cc(=O)n3nc(C4CCCCC4)sc3n2)cc1,inactive: 0%,–
O=C(Cn1ncc2ccc(Cl)cc21)NCc1ccc(F)cc1,inactive: -14.8%,–
CSc1cccc(Nc2nc3c(S(=O)(=O)c4ccccc4)nnn3c3ccc(Cl)cc23)c1,inactive: -0.107%,–
Cc1ccc(C)c(NC(=O)CSc2ncc(S(=O)(=O)c3ccc(C)c(Cl)c3)c(=O)[nH]2)c1,inactive: 5.98%,–

SMILES,"activity change, negative = inhibition",Potency
O=C(c1ccc2c(c1)N(Cc1ccc(F)cc1)C(=O)c1ccccc1S2=O)N1CCC(Cc2ccccc2)CC1 (configuration not stated),inactive: -4.58%,–
COc1ccc(Cn2c(SCc3ccc(C(=O)NC(C)C)cc3)nc3cccnc32)cc1,inactive: -2.11%,–
COc1ccccc1NC(=O)c1cccc(S(=O)(=O)N2CCCCCC2)c1,inactive: 6.27%,–
Cc1c(Cl)cccc1NC(=O)Nc1nnc(N2CCCCCC2)s1,inactive: -7.44%,–
Cc1ccc(C(=O)Nc2cccc(C(=O)O)c2)cc1S(=O)(=O)N1CCCC1,inactive: -5.52%,–
C=C(C)CSc1nc2sc3c(c2c(=O)n1-c1ccccc1)CC(C(C)C)OC3 (configuration not stated),inactive: -5.63%,–
CCC1CN(C(=O)N2CCC(C(=O)NCc3cccc(C)c3)CC2)c2ccccc2O1 (configuration not stated),inactive: 8.34%,–
O=C(Cn1c(=O)nc(-c2ccccc2F)c2cc(Cl)ccc21)N1CCN(c2ccccc2F)CC1,inactive: 7.01%,–
CCCCC(CC)CNC(=O)CN1C(=O)CSc2ccc(S(=O)(=O)N3CCOCC3)cc21 (configuration not stated),inactive: -2.34%,–
CCOc1ccccc1N(CC)C(=O)c1cc2c(=O)[nH]c3ccc(C)cc3c2s1,inactive: -11.8%,–
COC(=O)c1scc(-c2ccc(C)cc2)c1S(=O)(=O)Nc1cc(OC)c(OC)c(OC)c1,inactive: 0.181%,–
COc1ccc(CNC(=O)c2c3c(nc4ccccc24)C(=O)N(C2CCCCC2)C3)c(OC)c1,inactive: 9.94%,–
O=C(Cn1cc(S(=O)(=O)Cc2cccc(Cl)c2)c2ccccc21)NCCc1ccccc1,inactive: -3.78%,–
Clc1cccc(-n2ncc3c(N4CCCCC4)ncnc32)c1,inactive: -2.35%,–
Cc1ccc(NC(=O)/C(C#N)=C/c2ccc(C(C)C)cc2)cc1C,inactive: -3.23%,–
CCN(c1cccc(C)c1)S(=O)(=O)c1ccc2[nH]cc(C(=O)NCCCOC)c(=O)c2c1,inactive: -0.849%,–
CC(=O)Nc1nonc1-c1nnc(SCC(=O)N(C)c2ccccc2)n1C,inactive: 1.27%,–
COc1ccc(CNC(=O)C(=O)Nc2ccc(OC)cc2OC)cc1,inactive: -1.6%,–
CCOC(=O)c1cnc2c(C)c(Cl)ccc2c1NCCc1ccccc1,inactive: 3.05%,–
COc1cccc(NC(=O)CN2C(=O)c3ccccc3Sc3ncccc32)c1,inactive: -4.27%,–
Cc1ccc(-n2nc(C)c3c(C(F)(F)F)cc(-c4cccnc4)nc32)cc1Cl,inactive: -0.589%,–
COc1ccccc1C(=O)Nc1c(C(=O)NC(C)(C)C)oc2ccccc12,inactive: 0.419%,–
COc1ccc(S(=O)(=O)N2CCN(c3ccccc3OC)CC2)cc1,inactive: -14.1%,–
CCOC(=O)c1ccc(NC(=O)c2cn3c4c(ccc(Cl)c4c2=O)OC(C)C3)cc1 (configuration not stated),inactive: -0.312%,–
COc1cc(OC)c(N(C)C(=O)Nc2cn(CC(C)C)c(=O)c3ccccc23)cc1Cl,inactive: 2.82%,–

SMILES,"activity change, negative = inhibition",Potency
CCCc1nn2c(=O)cc(COC(=O)CNC(=O)COc3ccc(C)cc3)nc2s1,inactive: 3%,–
Cc1ccc(-c2nc(C)c(CCNC(=O)c3ccccc3Br)s2)cc1,inactive: -10.7%,–
CC1CCN(C(=O)CSc2nc(-c3ccc(F)cc3)cc(C(F)(F)F)n2)CC1,inactive: 4.95%,–
CCOC(=O)c1sc(NC(=O)c2c(-c3ccccc3)c(-c3ccccc3)nn(C)c2=O)nc1C,inactive: 3.01%,–
CCc1ccc(Nc2nc3ccccc3nc2NS(=O)(=O)c2ccccc2)cc1,inactive: -13.9%,–
Cc1cccc(-n2c(=O)c3ccccc3n(Cc3ccc(F)cc3)c2=O)c1,inactive: -8.52%,–
COc1ccc(NC(=O)C2=C(C)Nc3nc(SCc4ccc(Cl)cc4)nn3C2c2cccc(OC)c2OC)cc1 (configuration not stated),inactive: -27.4%,–
O=C(Cn1c(=O)nc(-c2ccccc2)c2ccccc21)Nc1ccc(Cl)cc1F,inactive: -1.23%,–
CCCCOC(=O)c1ccc(NC(=O)c2sc3nc(C)cc(C)c3c2N)cc1,–,active: 10.4 µM
Cc1ccc(NC(=O)/C=C/c2ccccc2Cl)cc1Cl,inactive: 5.71%,–
Cc1cc2c(cc1S(=O)(=O)Nc1cc(C(F)(F)F)cc(C(F)(F)F)c1)OCC(=O)N2,inactive: 4.02%,–
Cc1nc2cccnc2n1C1CCN(C(=O)Nc2ccc(Cl)cc2)CC1,inactive: 6.23%,–
COC(=O)Cc1c(C)c2ccc3c(c2oc1=O)CN(Cc1ccccc1Cl)CO3,inactive: -1.83%,–
CCc1c(C)sc2c1CCN(Cc1ccccc1F)C2c1ccccc1 (configuration not stated),inactive: 8.6%,–
CCOc1ccc(-c2c(C)nn3c(C)c(C(=O)NCCc4ccc(C)cc4)cnc23)cc1OCC,inactive: -29%,–
O=C(NCCSc1c[nH]c2ccccc12)c1ccccc1Cl,inactive: 1.19%,–
CNC(=O)CN1C(=O)COc2ccc(S(=O)(=O)N3CCC(C)CC3)cc21,inactive: 0.857%,–
COCCNC(=O)c1ccccc1NC(=O)c1nsc2ccccc12,inactive: -19.4%,–
COc1ccc2[nH]cc(CCN=C(NC(=O)c3ccccc3OC)Nc3nc(C)cc(C)n3)c2c1,inactive: -10.8%,–
CCc1cc2c(cc3c(=O)n(CC(=O)NCCc4ccc(OC)cc4OC)nc(CC)n32)s1,inactive: 2.5%,–
Cc1ccc(-n2cnnn2)cc1S(N)(=O)=O,inactive: -21.6%,–
COC(=O)Cn1c(SCCOc2ccccc2OC)nc2ccccc21,inactive: -0.519%,–
Cc1cc2[nH]c(=O)c(=O)[nH]c2cc1S(=O)(=O)N1CCN(c2cccc(Cl)c2)CC1,inactive: -6.09%,–
Cc1ccc(NC(=O)c2ccc(NC(=O)CCS(=O)(=O)c3cccs3)cc2)cc1F,inactive: -16.2%,–
COc1cccc(Cn2cc(C(=O)c3ccc(Cl)cc3)c(=O)c3ccccc32)c1,inactive: 0.303%,–

SMILES,"activity change, negative = inhibition",Potency
Cc1ccccc1Nc1c(-c2ccc(N3CCOCC3)cc2)nc2ccc(Br)cn12,inactive: 3.31%,–
CCOC(=O)C1(C)C=C(Nc2cccc(C(=O)O)c2)C(=O)N1c1ccccc1 (configuration not stated),inactive: 6.58%,–
Cc1ccc(CNC(=O)C(=O)NCC(c2ccc3c(c2)OCO3)N2CCOCC2)cc1 (configuration not stated),inactive: 1.1%,–
Cc1ccc2c(=O)cc(C(=O)Nc3c(C)n(C)n(-c4ccccc4)c3=O)oc2c1,inactive: 1.04%,–
COc1cc(NC(=O)CSc2nc3nc(C)c(Cc4ccccc4Cl)c(C)n3n2)cc(OC)c1,inactive: 8.6%,–
Cc1ccc(Nc2ncnc3sc4c(c23)CCC(C)C4)cc1C (configuration not stated),inactive: -16.5%,–
CCCOc1ccc(CNC(=O)C(NS(=O)(=O)c2cccs2)C(C)C)cc1 (configuration not stated),inactive: 0%,–
COc1cc(Cl)c(C)cc1NC(=O)c1cnc(N2CCCCC2)c2ccccc12,inactive: -2.01%,–
COc1cc2nc(SCc3ccc(C)cc3)n3nc(CCn4nc(C)cc4C)nc3c2cc1OC,inactive: 0.579%,–
CC(C)Cn1c(-c2cccc(Br)c2)nc2ccccc21,inactive: -0.225%,–
COC(=O)C(CCSC)Nc1ncnc2onc(-c3ccc(F)cc3)c12 (configuration not stated),inactive: -13%,–
Cc1cc(C)cc(NC(=O)C(Cc2ccccc2)NS(=O)(=O)c2ccc3c(c2)CCC(=O)N3)c1 (configuration not stated),inactive: 0.37%,–
CCOc1ccccc1NC(=O)C(=O)Nc1ccc2nc3n(c(=O)c2c1)CCCCC3,inactive: -1.82%,–
OCc1cnc(SCc2ccccc2F)n1Cc1ccc(F)cc1,inactive: 3.01%,–
O=C(c1ccccc1)N1c2nc(-c3ccco3)nn2C2(CCCCC2)[C@@H]2CCCC[C@@H]21,inactive: 0.885%,–
Cc1cc(C)cc(NC(=O)Cc2noc3ccccc23)c1,inactive: -1.26%,–
Cc1cc(C)c(NC(=O)C2CCCN(S(=O)(=O)c3c(C)noc3C)C2)c(C)c1 (configuration not stated),inactive: -0.151%,–
Cc1ccccc1OCc1ccc(-c2nc(C#N)c(N3CCN(c4cccc(Cl)c4)CC3)o2)o1,inactive: -0.656%,–
CCCCCCOc1ccc(C2C(=O)N(C3CCCCC3)CC(=O)N2C2CCCCC2)cc1 (configuration not stated),inactive: 7.9%,–
CCN(CC)S(=O)(=O)c1ccc(C(=O)NCCSc2c(-c3ccccc3)[nH]c3ccccc23)cc1,inactive: 0%,–
CCC(=O)N1CCc2cc(S(=O)(=O)NCCC(=O)Nc3ccc(N(CC)CC)cc3C)ccc21,inactive: -19.2%,–
O=C(c1ccc2c(c1)N(Cc1ccc(F)cc1)C(=O)c1ccccc1S2(=O)=O)N1CCCCC1,inactive: 0.0372%,–

# — PubChem BioAssay AID493208 (National Center for Advancing Translational Sciences (NCATS), 2011)
